Source: PubChem BioAssay AID686978 (National Center for Advancing Translational Sciences (NCATS), 2013)
Among all 420,000 compounds or so, about 64,000 (15%) were called active. Inconclusive means that the source gave no clear call. Such entries were picked first, then a sample of the others. The call rests on the fitted dose curve; in most records, active means well fitted inhibition curve with a large enough effect; inconclusive means small, poorly fitted or top-dose-only effect; inactive means flat fitted curve, though single readings scatter. Potencies of inconclusive entries are left out as doubtful fits. Square brackets hold non-standard residues; d marks the D form. Peptide text beside a SMILES is read from it. * marks the point of attachment. Hyp = O=C(O)[CH]1C[CH](O)CN1; Cbz = O=C(OCc1ccccc1)*; OBn = c1ccc(CO*)cc1

Assay: qHTS for Inhibitors of human tyrosyl-DNA phosphodiesterase 1 (TDP1): qHTS in cells in absence of CPT; further: nearly all actives have a fitted effect of over 55% in size
Conditions: DT40 Tdp1-/- hTDP1 cells, no CPT, ATP luminescence, 48 h; series mostly up to 46.2 µM
Procedure, shortened: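 Growth of hTDP1-complemented DT40 Tdp1-knockout cells is measured by ATP luminescence after at least 48 hr compound exposure at 37 °C, with DMSO substituting for the 20 nM CPT used in the parallel screen.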
Potency means the concentration at half of the fitted maximal effect; tags describe the fitted curve by direction and shape.

Row | SMILES | Potency
1 | COC(=O)c1ccc(NC(=O)c2c(NCc3ccc(C)o3)sc3c2CCCC3)cc1 | inconclusive [inhibitor, single point]
2 | CC(NC(=O)CNC(=O)OCc1ccccc1)C(=O)N1CC(O)CC1C(=O)OCc1ccccc1 (stereo not drawn) (Cbz-Gly-Ala-[Hyp]-OBn; configuration not given here) | inconclusive [inhibitor, single point]
3 | C[C@H](O)[C@@H]1CN2CCc3c([nH]c4ccc(-c5ccc6c(c5)OCO6)cc34)[C@@H]2C[C@@H]1N(C)C(=O)Nc1ccc(F)cc1 | active: 5.17 µM
4 | c1ccc(CSc2nnc(-c3cccs3)o2)cc1 | inconclusive [inhibitor, partial curve]
5 | COc1ccc(CC(=O)N/N=C/c2cccnc2)cc1OC | inactive
6 | O=C(NCCN1CCOCC1)c1ccc(Cl)cc1O | inactive
7 | O=c1[nH]c2c(-c3nc(-c4ccc(Cl)cc4)cs3)c(O)cn2c2ccccc12 | active: 2.82 µM
8 | Cc1ccc(Cn2c(SCC(=O)Nc3cc(C)on3)nc3ccccc3c2=O)cc1 | inconclusive [inhibitor, partial curve]
9 | C=CCn1c(=O)c(C(=O)NC2CC2)c(O)c2cc(OC)c(OC)cc21 | inconclusive [inhibitor, single point]
10 | CC(C)c1onc(C(=O)N2CCN(C(c3ccccc3)c3ccccc3)CC2)c1[N+](=O)[O-] | inconclusive [inhibitor, single point]
11 | Cc1ccc(CN2CC(C(=O)Nc3ccc(S(=O)(=O)N4CCCCC4)cc3)CC2=O)cc1 (stereo not drawn) | inconclusive [inhibitor, single point]
12 | COC(=O)c1ccc(COC(=O)c2cnc(Cl)c(Cl)c2)cc1 | inactive
13 | O=C(Nc1ccc(NC(=O)C2CC2)nc1)c1ccncc1 | inactive
14 | O=S(=O)(Nc1ccc(Cl)cc1NS(=O)(=O)c1ccccc1)c1ccccc1 | inconclusive [inhibitor, partial curve, poor fit]
15 | COc1ccc(NC(=O)CN(C)C(=O)c2sc3cc(Cl)ccc3c2Cl)cc1 | inconclusive [inhibitor, single point]
16 | O=C(O)C(=O)/C(=C\c1cccc2ccccc12)c1ccc2ccccc2n1 | active: 18.4 µM
17 | COc1cccc(C(=O)N(Cc2cc3ccc(C)cc3nc2N(C)C)C2CC2)c1OC | inactive
18 | Cc1ccc(OCC(=O)N2CCN(c3nnc(-c4ccccc4)c4ccccc34)CC2)cc1 | inconclusive [inhibitor, single point]
